{
  "source": "paper PMC5708895",
  "about": "“Time-gated detection of protein-protein interactions with transcriptional readout” (eLife, 2017)",
  "target": "T1, β2AR-eLOV-TEVcs-FLAG-GAL4-V5 (UniProt P07550)",
  "T1 construct": "also called P6; β2AR SPARK TF component; source: HEK293T, transiently transfected, in cells",
  "assay": "SPARK with FACS and RT-qPCR (model selection)",
  "conditions": "partners not purified",
  "data": [
    {"binder": "Rat-β-arrestin2-HA-TEVp Δ[…] (natural protein, also called P4; P5) not shown", "values": [
      {"measurement": "fold enrichment by FACS of cells with the matched pair over cells with the mismatched pair (β2AR-calmodulin)", "result": 51, "unit": "fold"}
    ]}
  ]
}
